The source gives no read counts; variants with many changes may rest on few reads.
B1: LINE1-mini (parent)
chain: GGCAGAGCUCAACACAGCGUGGCAAAGUGGCUGUGGCUAGACUGCC

Variants of: B1
Assay: self-cleavage, relative activity (ratio to wild type); higher = more cleavage; in vitro, sequencing; the parent is a self-cleaving ribozyme

Row | Variant | self-cleavage
1 | GGCAGAGCUCAAUACAGCAUGGCAAAGUGGCUGUGGCUAGACUGCU | 0.29
2 | GGCAGAGCUCAAUACACCGUGGCAAAGUGGCUAUGGCUAGACUGCC | 0.11
3 | GGCAGAGCUCAAUACAGGGUGGCAAAGAGGCUAUGGCUAGACUACC | 0.16
4 | GGCAGAGCUCAAUACAGCCUGGCAAAGAGGCUGUGGCUAGACUGCC | 0.07
5 | GGCAGAGCUCAAUACAGCAUGGCAAAGUGGCUGAGGCUAGACUGCC | 0.04
6 | GGCAGAGCUCAAUACAGCGUGGAAAACUGGCUGUGGCUAGACUGCC | 0.22
7 | GGCAGAGCUCAAUACAGCGUGCCAAAGUUGCUGUGACUAGACUGCC | 0.13
8 | GGCAGAGCUCAAUACAGCGUGUAAAAGUGGCUCUGGCUAGACUGCC | 0.03
9 | GGCAGAGCUCAAUACAGCAUGGCAAAGUGACUGUGGCUAGAAUGCC | 0.03
10 | GGCAGAGCUCAAUACAGGGUGGCGAAGUGGCUGUGGCCACACUGUC | 0.05
11 | GGCAGAGCUCAAUACAGAGUGGCAAAGUGGCUGUGGCGAAACUGAC | 0
12 | GGCAGAGCUCAAUACAGCGUGGCAAAAUGUCUGUGGCUAGACUGCC | 0.15
13 | GGCAGAGCUCAAUACACCGUGGUAAUGUUGCUGUGGCUAGACUGCC | 1.16
14 | GGCAGAGCUCAAUACAGCGUGGAAAAGUGGCUGUGGUUAGACUGCC | 0.05
15 | GGCAGAGCUCAAUACAGCGUAGCAAAGUGGCUCUGGCUCCACUUCC | 0.01
16 | GGCAGAGCUCAAUACAGCUUGGCAAAGUGGCUGUGGAUAGACUGCC | 0.16
17 | GGCAGAGCUCAAUACAGCGUGGAAAAAUGUCUGUGGCUAGACUGCC | 0.16
18 | GGCAGAGCUCAAUACAGCGUCGCAAAGUCGCUGUGGCUAGACUGCC | 0.06
19 | GGCAGAGCUCAAUACAUCAUGGCAAAGUGGCUAUGGCUAGAAAGCU | 0.06

Row | Variant | self-cleavage
20 | GGCAGAGCUCAAUACAGCGUGUCAAAGUGGCUGUUGCUAGACUGCC | 0.23
21 | GGCAGAGCUCAAUACAUCGUGGCAAAGUGGCUCUGGCUAGAUUGCC | 0.03
22 | GGCAGAGCUCAAUACAUCGUGGCAAAGUGGCUGUGGCUAGAAUGCC | 0.09
23 | GGCAGAGCUCAAUACAGCUUGGCAAAGUGGCUGUGGCUACACUGAC | 0.01
24 | GGCAGAGCUCAAUACAGCGUCGCAAAGUAGCUUUGGCUAGACUGCC | 0.03
25 | GGCAGAGCUCAAUACAGCGUUUCAAACAGCCUGUGGCUAGACUGCA | 0.05
26 | GGCAGAGCUCAAUACAGCGUGGCAAAGUGGCUGUGGCUAGAUUACU | 0.08
27 | GGCAGAGCUCAAUACAGCGUGGAGAAGUGGCUCUAGCUCGACUGCC | 0.01
28 | GGCAGAGCUCAAUACAGAGUGGCAAAGUGGCUGUGGUUAGUCUGCC | 0.09
29 | GGCAGAGCUCAAUACAGAGUGGCAAAGUGGCUGUGGCUAGACUGCA | 0.07
30 | GGCAGAGCUCAAUACAGUGUGGCAAAGUGGCUGUGGCUAGACUGAC | 0.04
31 | GGCAGAGCUCAAUACAGCGUGGCAAAGUGGGUGCGGCUAGACUGCC | 0
32 | GGCAGAGCUCAAUACAGCGUGGCAAAGUGGGUGGGGCUAGACUGCC | 0.01
33 | GGCAGAGCUCAAUACAGCGUGGCAAAUUGGCUUUGGCUAGACUGCC | 0.03
34 | GGCAGAGCUCAAUACAGCGUGGCAAACUGGCUGUGGCUAGACUGCG | 0.34
35 | GGCAGAGCUCAAUACAGCCUGGCCUCGUGGCUAUGGCUAGACUGCC | 0.06
36 | GGCAGAGCUCAAUACAGCGUGGUAAGGUGGCGGAGGCUAGACUGGC | 0.02
37 | GGCAGAGCUCAAUACAGUGUGGCAGAGUGGCUGUGGCUAGACUGCC | 0.07
38 | GGCAGAGCUCAAUACAACGUGGCAACGUUGCUGUGGCUAGACUGCC | 0.15

Row | Variant | self-cleavage
39 | GGCAGAGCUCAAUACAGCCUGGGAAAGUGGAUGUGGCUAGACUGCC | 0.05
40 | GGCAGAGCUCAAUACAGCGUGACAAACUGGCUGUGGCUAGACUACU | 0.05
41 | GGCAGAGCUCAAUACAGCGUGGCAAAGUGGUUGUGGCUAGACUGGC | 0.05
42 | GGCAGAGCUCAAUACAGUGUUGCAAAGUGGCUGUGGCUAGACUGCC | 0.08
43 | GGCAGAGCUCAAUACAGCGUGGAAAAGUGGCUGUGACUAGACUGCC | 0.14
44 | GGCAGAGCUCAAUACAGCGUCGCACAUUGGCUGUGGCUAGACUGCC | 0.04
45 | GGCAGAGCUCAAUACAGCGUGGUAAAGUGGCUGUGUCUAGACUGCC | 0.05
46 | GGCAGAGCUCAAUACAGAGUGGCAAAGUGGCGGUGGCUAGACGGCC | 0.01
47 | GGCAGAGCUCAAUACAUCGCGGCAAAGAGGCUGUGGCUAGACUGCC | 0.09
48 | GGCAGAGCUCAAUACAGCGUGGUAAUGUGGCUGUGACUAGACUGCC | 0.33
49 | GGCAGAGCUCAAUACAGCGUGCCAAAGUGGCUGUGGCUAGACUUCC | 0.12
50 | GGCAGAGCUCAAUACAGCUUGGCCAUGUGGCUGUGGCUAGACUGCA | 0.06
51 | GGCAGAGCUCAAUACAGCCUGGCAAAGUGGGUGUGGCUAGACUGCG | 0.12
52 | GGCAGAGCUCAAUACAGUGUGGCAAAGUGGCCGUCGCUAGACUGCC | 0.11
53 | GGCAGAGCUCAAUACAGUGUGGCAAAGUGGCGGUGGCUAGACUGCC | 0.02
54 | GGCAGAGCUCAAUACACCGCGGCAAAGUGGCUGUGGCUAGACUGCC | 0.08
55 | GGCAGAGCUCAAUACAACGUGGCAAACAGGCCGUGGCUAGACUGCC | 0.02
56 | GGCAGAGCUCAAUACAGCGUGUCAAAGUGGCUGUGACUAGACUGCC | 0.42

Source: the RNAGym collection of RNA variant scans (doi:10.7554/elife.90254)
